# Some of the results follow.
# Assays:
# Assay in all cases: glycan array binding signal (z-score within array); higher = stronger binding
# Details in all cases: glycan notation: IUPAC condensed, linker removed
# [1] = biological target: Fuc(a1-2)Gal
# Procedure, shortened: (§1)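 Arrays were curated from the Consortium for Functional Glycomics database, 3228 in total, and kept only where the protein sequence was available. Binding is expressed as a within-array Z-score. This score was averaged across arrays of the same protein sequence at different concentrations or buffers and across linkers, and negative values can be read as non-binding.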
# [2] = biological target: Fuc(a1-2)Gal(b1-3)GalNAc
# Procedure, shortened: as §1
# [3] = biological target: Fuc(a1-2)Gal(b1-3)GalNAc(a1-3)[Fuc(a1-2)]Gal(b1-4)Glc
# Procedure, shortened: as §1
# [4] = biological target: Fuc(a1-2)Gal(b1-3)GalNAc(a1-3)[Fuc(a1-2)]Gal(b1-4)GlcNAc
# Procedure, shortened: as §1
# [5] = biological target: Fuc(a1-2)Gal(b1-3)GalNAc(b1-3)Gal
# Procedure, shortened: as §1
# [6] = biological target: Fuc(a1-2)Gal(b1-3)GalNAc(b1-3)Gal(a1-4)Gal(b1-4)Glc
# Procedure, shortened: as §1
# [7] = biological target: Fuc(a1-2)Gal(b1-3)GalNAc(b1-3)Gal(b1-4)Glc
# Procedure, shortened: as §1
# [8] = biological target: Fuc(a1-2)Gal(b1-3)GalNAc(b1-4)[Neu5Ac(a2-3)]Gal(b1-4)Glc
# Procedure, shortened: as §1
# [9] = biological target: Fuc(a1-2)Gal(b1-3)GlcNAc
# Procedure, shortened: as §1
# [10] = biological target: Fuc(a1-2)Gal(b1-3)GlcNAc(b1-2)Man(a1-3)[Fuc(a1-2)Gal(b1-3)GlcNAc(b1-2)Man(a1-6)]Man(b1-4)GlcNAc(b1-4)GlcNAc
# Procedure, shortened: as §1
# [11] = biological target: Fuc(a1-2)Gal(b1-3)GlcNAc(b1-2)Man(a1-3)[Fuc(a1-2)Gal(b1-3)GlcNAc(b1-2)Man(a1-6)]Man(b1-4)GlcNAc(b1-4)[Fuc(a1-6)]GlcNAc
# Procedure, shortened: as §1
# [12] = biological target: Fuc(a1-2)Gal(b1-3)GlcNAc(b1-3)Gal(b1-4)Glc
# Procedure, shortened: as §1
# [13] = biological target: Fuc(a1-2)Gal(b1-3)GlcNAc(b1-3)GalNAc
# Procedure, shortened: as §1
# [14] = biological target: Fuc(a1-2)Gal(b1-3)GlcNAc(b1-3)[Fuc(a1-2)Gal(b1-3)GlcNAc(b1-6)]GalNAc
# Procedure, shortened: as §1
# [15] = biological target: Fuc(a1-2)Gal(b1-3)GlcNAc(b1-3)[Gal(b1-4)GlcNAc(b1-6)]Gal(b1-4)Glc
# Procedure, shortened: as §1
# [16] = biological target: Fuc(a1-2)Gal(b1-3)GlcNAc(b1-3)[Neu5Ac(a2-6)Gal(b1-4)GlcNAc(b1-6)]Gal(b1-4)Glc
# Procedure, shortened: as §1
# [17] = biological target: Fuc(a1-2)Gal(b1-3)GlcNAc6S
# Procedure, shortened: as §1
# [18] = biological target: Fuc(a1-2)Gal(b1-3)[Fuc(a1-4)]GlcNAc
# Procedure, shortened: as §1
# [19] = biological target: Fuc(a1-2)Gal(b1-3)[Fuc(a1-4)]GlcNAc(b1-2)Man(a1-3)[Fuc(a1-2)Gal(b1-3)[Fuc(a1-4)]GlcNAc(b1-2)Man(a1-3)]Man(b1-4)GlcNAc(b1-4)GlcNAc
# Procedure, shortened: as §1
# [20] = biological target: Fuc(a1-2)Gal(b1-3)[Fuc(a1-4)]GlcNAc(b1-2)Man(a1-3)[Fuc(a1-2)Gal(b1-3)[Fuc(a1-4)]GlcNAc(b1-2)Man(a1-6)]Man(b1-4)GlcNAc(b1-4)[Fuc(a1-6)]GlcNAc(b1-4)[Fuc(a1-6)]GlcNAc
# Procedure, shortened: as §1
# [21] = biological target: Fuc(a1-2)Gal(b1-3)[Fuc(a1-4)]GlcNAc(b1-3)[Fuc(a1-3)[Gal(b1-4)]GlcNAc(b1-6)]Gal(b1-4)Glc
# Procedure, shortened: as §1
# [22] = biological target: Fuc(a1-2)Gal(b1-3)[Fuc(a1-4)]GlcNAc(b1-3)[Gal(b1-4)GlcNAc(b1-6)]Gal(b1-4)Glc
# Procedure, shortened: as §1
# [23] = biological target: Fuc(a1-2)Gal(b1-4)Fuc(a1-3)]GlcNAc(b1-2)Man(a1-3)[Fuc(a1-2)Gal(b1-4)[Fuc(a1-3)]GlcNAc(b1-2)Man(a1-6)]Man(b1-4)GlcNAc(b1-4)GlcNAc
# Procedure, shortened: as §1
# [24] = biological target: Fuc(a1-2)Gal(b1-4)Glc
# Procedure, shortened: as §1
# [25] = biological target: Fuc(a1-2)Gal(b1-4)Glc6S
# Procedure, shortened: as §1
# [26] = biological target: Fuc(a1-2)Gal(b1-4)GlcNAc
# Procedure, shortened: as §1
# [27] = biological target: Fuc(a1-2)Gal(b1-4)GlcNAc(b1-2)Man
# Procedure, shortened: as §1
# [28] = biological target: Fuc(a1-2)Gal(b1-4)GlcNAc(b1-2)Man(a1-3)[Fuc(a1-2)Gal(b1-4)GlcNAc(b1-2)Man(a1-6)]Man(b1-4)GlcNAc(b1-4)GlcNAc
# Procedure, shortened: as §1
# [29] = biological target: Fuc(a1-2)Gal(b1-4)GlcNAc(b1-2)Man(a1-3)[Fuc(a1-2)Gal(b1-4)GlcNAc(b1-2)Man(a1-6)]Man(b1-4)GlcNAc(b1-4)[Fuc(a1-6)]GlcNAc
# Procedure, shortened: as §1
# [30] = biological target: Fuc(a1-2)Gal(b1-4)GlcNAc(b1-2)[Fuc(a1-2)Gal(b1-4)GlcNAc(b1-4)]Man(a1-3)[Fuc(a1-2)Gal(b1-4)GlcNAc(b1-2)Man(a1-6)]Man(b1-4)GlcNAc(b1-4)GlcNAc
# Procedure, shortened: as §1
# [31] = biological target: Fuc(a1-2)Gal(b1-4)GlcNAc(b1-3)Gal(b1-4)GlcNAc
# Procedure, shortened: as §1
# [32] = biological target: Fuc(a1-2)Gal(b1-4)GlcNAc(b1-3)Gal(b1-4)GlcNAc(b1-2)Man(a1-3)[Fuc(a1-2)Gal(b1-4)GlcNAc(b1-3)Gal(b1-4)GlcNAc(b1-2)Man(a1-6)]Man(b1-4)GlcNAc(b1-4)GlcNAc
# Procedure, shortened: as §1
# [33] = biological target: Fuc(a1-2)Gal(b1-4)GlcNAc(b1-3)Gal(b1-4)GlcNAc(b1-3)Gal(b1-4)GlcNAc
# Procedure, shortened: as §1
# [34] = biological target: Fuc(a1-2)Gal(b1-4)GlcNAc(b1-3)GalNAc
# Procedure, shortened: as §1
# [35] = biological target: Fuc(a1-2)Gal(b1-4)GlcNAc(b1-3)[Fuc(a1-2)Gal(b1-4)GlcNAc(b1-6)]GalNAc
# Procedure, shortened: as §1
# [36] = biological target: Fuc(a1-2)Gal(b1-4)GlcNAc(b1-3)[Fuc(a1-3)[Gal(b1-4)]GlcNAc(b1-6)]Gal(b1-4)Glc
# Procedure, shortened: as §1
# [37] = biological target: Fuc(a1-2)Gal(b1-4)GlcNAc(b1-6)GalNAc
# Procedure, shortened: as §1
# [38] = biological target: Fuc(a1-2)Gal(b1-4)GlcNAc6S
# Procedure, shortened: as §1
# [39] = biological target: Fuc(a1-2)Gal(b1-4)[Fuc(a1-3)]GalNAc(b1-3)Gal(b1-4)[Fuc(a1-3)]GlcNAc
# Procedure, shortened: as §1
# [40] = biological target: Fuc(a1-2)Gal(b1-4)[Fuc(a1-3)]GalNAc(b1-3)Gal(b1-4)[Fuc(a1-3)]GlcNAc(b1-3)Gal(b1-4)[Fuc(a1-3)]GalNAc
# Procedure, shortened: as §1
# [41] = biological target: Fuc(a1-2)Gal(b1-4)[Fuc(a1-3)]GlcNAc
# Procedure, shortened: as §1
# [42] = biological target: Fuc(a1-2)Gal(b1-4)[Fuc(a1-3)]GlcNAc(b1-2)Man(a1-3)[Fuc(a1-2)Gal(b1-4)[Fuc(a1-3)]GlcNAc(b1-2)Man(a1-6)]Man(b1-4)GlcNAc(b1-4)[Fuc(a1-6)]GlcNAc
# Procedure, shortened: as §1
# [43] = biological target: Fuc(a1-2)Gal(b1-4)[Fuc(a1-3)]GlcNAc(b1-2)[Fuc(a1-2)Gal(b1-4)[Fuc(a1-3)]GlcNAc(b1-4)]Man(a1-3)[Fuc(a1-2)Gal(b1-4)[Fuc(a1-3)]GlcNAc(b1-2)Man(a1-6)]Man(b1-4)GlcNAc(b1-4)GlcNAc
# Procedure, shortened: as §1
# [44] = biological target: Fuc(a1-2)Gal(b1-4)[Fuc(a1-3)]GlcNAc(b1-3)Gal(b1-4)[Fuc(a1-3)]GlcNAc
# Procedure, shortened: as §1
# [45] = biological target: Fuc(a1-2)Gal(b1-4)[Fuc(a1-3)]GlcNAc(b1-3)Gal(b1-4)[Fuc(a1-3)]GlcNAc(b1-3)Gal(b1-4)[Fuc(a1-3)]GlcNAc
# Procedure, shortened: as §1
binder,measurement,setting,value
"Gal 2 (Homo sapiens), P05162 (protein) MTGELEVKNMDMKPGSTLKITGSIADGTDGFVINLGQGTDKLNLHFNPRFSESTIVCNSLDGSNWGQEQREDHLCFSPGSEVKFTVTFESDKFKVKLPDGHELTFPNRLGHSHLSYLSVRGGFNMSSFKLKE",glycan array binding signal (z-score),[1],-0.285
same,glycan array binding signal (z-score),[2],1.22
same,glycan array binding signal (z-score),[3],-0.125
same,glycan array binding signal (z-score),[4],0.069
same,glycan array binding signal (z-score),[5],-0.231
same,glycan array binding signal (z-score),[6],-0.282
same,glycan array binding signal (z-score),[7],3.12
same,glycan array binding signal (z-score),[8],-0.24
same,glycan array binding signal (z-score),[9],1.99
same,glycan array binding signal (z-score),[10],-0.215
same,glycan array binding signal (z-score),[11],-0.229
same,glycan array binding signal (z-score),[12],2.35
same,glycan array binding signal (z-score),[13],-0.166
same,glycan array binding signal (z-score),[14],-0.048
same,glycan array binding signal (z-score),[15],0.057
same,glycan array binding signal (z-score),[16],-0.046
same,glycan array binding signal (z-score),[17],0.012
same,glycan array binding signal (z-score),[18],-0.246
same,glycan array binding signal (z-score),[19],0.367
same,glycan array binding signal (z-score),[20],0.137
same,glycan array binding signal (z-score),[21],-0.103
same,glycan array binding signal (z-score),[22],-0.15
same,glycan array binding signal (z-score),[23],-0.079
same,glycan array binding signal (z-score),[24],-0.05
same,glycan array binding signal (z-score),[25],-0.179
same,glycan array binding signal (z-score),[26],0.393
same,glycan array binding signal (z-score),[27],-0.144
same,glycan array binding signal (z-score),[28],0.847
same,glycan array binding signal (z-score),[29],-0.196
same,glycan array binding signal (z-score),[30],-0.083
same,glycan array binding signal (z-score),[31],2.16
same,glycan array binding signal (z-score),[32],0.488
same,glycan array binding signal (z-score),[33],2.4
same,glycan array binding signal (z-score),[34],-0.16
same,glycan array binding signal (z-score),[35],-0.064
same,glycan array binding signal (z-score),[36],-0.105
same,glycan array binding signal (z-score),[37],0.15
same,glycan array binding signal (z-score),[38],0.177
same,glycan array binding signal (z-score),[39],-0.509
same,glycan array binding signal (z-score),[40],-0.356
same,glycan array binding signal (z-score),[41],-0.22
same,glycan array binding signal (z-score),[42],-0.066
same,glycan array binding signal (z-score),[43],-0.079
same,glycan array binding signal (z-score),[44],-0.222
same,glycan array binding signal (z-score),[45],-0.239
